Measured values published in PubChem BioAssay AID995 (National Center for Advancing Translational Sciences (NCATS), 2007).
Where “and” joins values, the source holds several entries; their conditions need not be identical. Identical values can stand only once. The whole screen tested about 72,000 compounds, of which about 710 (0.99%) were called active. Inconclusive results, whose numbers are uncertain, are shown with a selection of clear calls. The call rests on the fitted dose curve; in most records, active means well fitted inhibition curve with a large enough effect; inconclusive means small, poorly fitted or top-dose-only effect; inactive means no such curve, though single readings can be large or run the other way. Potencies of inconclusive entries are doubtful fits and often do not repeat.

Assay: qHTS Assay for Inhibitors of the ERK Signaling Pathway using a Homogeneous Screening Assay; further: nearly all actives have a fitted effect of over 55% in size
Settings: HEK293-V1b, vasopressin-stimulated pERK AlphaScreen; activity, negative = inhibition: at 57.5 µM (top of the series) unless noted
How it was run: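 HEK293 cells stably expressing V1b receptor, preincubated 30 min at 37 °C with compound, then stimulated 5 min with 25 nM vasopressin. Phospho-ERK by AlphaScreen SureFire after 5 h RT; normalized to DMSO and vasopressin; AC50 by Hill fit.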
On the % scale 0 is the no-effect control and ±100 the full control effect; potency means the concentration at half of the fitted maximal effect; tags describe the fitted curve by direction and shape.

| SMILES | activity, negative = inhibition | Potency |
| --- | --- | --- |
| CC(C)C(NC(=O)C(Cc1ccc(O)cc1)NC(=O)C(NC(=O)C(F)(F)F)C(C)C)C(=O)O (stereo not drawn) | inactive: -12.6% | – |
| Cc1ccsc1-c1nc(CSCC(=O)NCc2ccc3c(c2)OCO3)c(C)o1 | – | inconclusive: 31.6 µM [inhibitor, single point] |
| Cn1c(C(=O)N2CCN(Cc3ccccc3)CC2)cc2c(=O)n(C)c3ccccc3c21 | – | inconclusive: 25.1 µM [inhibitor, single point] |
| Cc1sc2ncnc(SCC(=O)NC(=O)NCc3ccco3)c2c1C | inactive: 16.9% | – |
| Cc1[nH]c2ccccc2c1Cc1nnc(SCC(=O)NCc2ccco2)o1 | – | inconclusive: 25.1 µM [inhibitor, partial curve, poor fit] |
| O=C(C1CC(c2ccccc2O)=NO1)N1CCCC1 (stereo not drawn) | – | inconclusive: 31.6 µM [inhibitor, single point] |
| COc1ccccc1NC(=O)CSc1nnc(Cc2cccn2C)n1-c1ccc(F)cc1 | – | inconclusive: 25.1 µM [inhibitor, partial curve, poor fit] |
| O=C(CCSc1nc(-c2ccco2)cc(C(F)(F)F)n1)Nc1ccc2c(c1)OCO2 | inactive: -22% | – |
| CCCCOc1ccc(OCCCN2CCOCC2)cc1 | – | inconclusive: 15.8 µM [inhibitor, single point] and inconclusive: 1 µM [inhibitor, single point] |
| NC(=O)c1c(N)sc2c1CCCCC2 | – | inconclusive: 39.8 µM [inhibitor, single point] |
| O=C(Cc1ccccc1)N1CCCC(c2nc(-c3cccs3)no2)C1 (stereo not drawn) | – | inconclusive: 10 µM [inhibitor, partial curve] |
| Cc1cccc(CNc2cc(-c3ccoc3)ncn2)c1 | – | inconclusive: 39.8 µM [inhibitor, partial curve] |
| Cc1ccsc1C1NC(=O)c2c(sc3c2CCN(C)C3)N1 (stereo not drawn) | – | inconclusive: 20 µM [inhibitor, partial curve] |
| CCCOc1ccc2nc(NC(=O)OC)[nH]c2c1 | – | inconclusive: 39.8 µM [inhibitor, single point] |
| CCn1c2ccccc2c2nnc(SCC(=O)c3ccccc3)nc21 | – | active: 20 µM |
| O=C(Nc1nc(-c2ccco2)c(-c2ccco2)s1)C1CC(=O)N(c2ccc3c(c2)OCCO3)C1 (stereo not drawn) | – | inconclusive: 25.1 µM [inhibitor, single point] |
| Cc1nnc(NC(=O)C(C)Oc2ccc3c(C)cc(=O)oc3c2)s1 (stereo not drawn) | inactive: 21.9% | – |
| C=CCNc1nc2c(c(=O)n(C)c(=O)n2C)n1CCCCCC | – | inconclusive: 20 µM [inhibitor, partial curve] |
| Cc1cc(C)nc(Nc2nc3ccccc3[nH]2)n1 | inactive: 4.68% | – |
| COCCn1c(SCC(=O)Nc2nc(C)c(Cl)cc2Cl)nc2ccccc21 | – | inconclusive: 25.1 µM [inhibitor, single point] |
| CCOC(=O)c1oc2ccc(S(=O)(=O)N3CCOCC3)cc2c1C | inactive: -11.7% | – |
| COC(=O)c1cccc(NC(=O)NC2CCCN2S(=O)(=O)c2ccc(Cl)cc2)c1 (stereo not drawn) | – | inconclusive: 25.1 µM [inhibitor, single point] |
| Cc1cccc(S(=O)(=O)C(C#N)c2nc3ccccc3nc2N2CC(C)OC(C)C2)c1 (stereo not drawn) | inactive: -27.6% | – |

| SMILES | activity, negative = inhibition | Potency |
| --- | --- | --- |
| CCOC(=O)N1CCN(CC(=O)Nc2cc(C)nn2-c2nc3ccccc3s2)CC1 | – | inconclusive: 10 µM [inhibitor, partial curve] |
| COc1ccc(NC(=O)[C@@H]2[C@@H]3C(=O)N(C4CCCCC4)C(=O)[C@@H]3C3c4ccccc4C=CN32)cc1 (stereo partly drawn) | – | inconclusive: 31.6 µM [inhibitor, single point] |
| Cc1cc2c(nn1)CCc1nonc1-2 | – | inconclusive: 25.1 µM [inhibitor, partial curve] |
| COc1ccc(NC(=O)c2[nH]c(C)c(C(C)=O)c2C)cc1Cl | – | inconclusive: 25.1 µM [inhibitor, single point] |
| CCCN(CCC)C(=O)CSc1nc2n[nH]c(C)c2c(=N)n1-c1ccc(OCC)cc1 | – | inconclusive: 0.0631 µM [inhibitor, single point] |
| COc1cccc(Cn2c(=O)cnc3cnc(Oc4ccccc4)nc32)c1 | – | inconclusive: 3.16 µM [inhibitor, single point] |
| O=C(c1cn(-c2ccccc2)nc1-c1cccs1)N1CCN(c2ccccn2)CC1 | – | inconclusive: 31.6 µM [inhibitor, partial curve] |
| CCOC(=O)c1cc(CC)sc1N | – | inconclusive: 25.1 µM [inhibitor, partial curve, poor fit] |
| CCCc1cc(=O)n2[nH]c(-c3ccc(Br)cc3)cc2n1 | inactive: 13.9% | – |
| COc1ccccc1CNc1ccnc(-c2ccc(N(C)C)cc2)n1 | – | inconclusive: 25.1 µM [inhibitor, partial curve] |
| Fc1ccccc1 | inactive: 7.38% | – |
| CCN(CC)S(=O)(=O)c1cccc(-c2nnc(SC(C)C#N)n2Cc2ccccc2)c1 (stereo not drawn) | inactive: -21.8% | – |
| COc1ccc(CC(=O)c2ccc(O)cc2O)cc1 | inactive: 14.6% | – |
| COc1cccc(-c2nc(NC3CC3)c3ccccc3n2)c1 | – | active: 12.6 µM |
| COc1ccc(C2=NOC(Cn3c(Cc4ccc(Cl)cc4)nc4c3c(=O)n(C)c(=O)n4C)C2)cc1 (stereo not drawn) | – | inconclusive: 15.8 µM [inhibitor, partial curve] |
| COc1cc(OC)c(C2Oc3nc(SC)nnc3-c3ccccc3N2C(C)=O)cc1OC (stereo not drawn) | – | inconclusive: 20 µM [inhibitor, partial curve] |
| COc1ccc(C2OC3C(CO)OC(n4cnc5c(=O)[nH]c(N)nc54)C3O2)cc1 (stereo not drawn) | inactive: -5.95% | – |
| Cc1c(Cl)cc(C(C)(C)C)c(O)c1Cc1c(C)c(Cl)cc(C(C)(C)C)c1O | inactive: -2.91% [at 11.5 µM] | – |
| Cc1cc(NC(=O)CCCSc2nc(-c3ccco3)cc(C(F)(F)F)n2)no1 | inactive: -9.87% | – |
| COc1ncc2nc(-c3ccccc3)c(=O)n(-c3ccccc3)c2n1 | – | inconclusive: 10 µM [inhibitor, full curve] |
| O=C(c1cccc(F)c1)N1CCC2(CC1)CN(c1ccc(-c3ccccc3)cc1)C2 | – | inconclusive: 1.26 µM [inhibitor, partial curve] |
| O=C(c1cc2ccccc2oc1=O)N1CCCC1 | inactive: -8.21% | – |
| N#CC1=C(N)n2c(s/c(=C\c3ccco3)c2=O)=C(C#N)C1c1ccco1 (stereo not drawn) | inactive: -10.7% | – |

| SMILES | activity, negative = inhibition | Potency |
| --- | --- | --- |
| COC(=O)c1cn(-c2ccccc2)nc1-c1cccnc1 | – | inconclusive: 0.0126 µM [inhibitor, full curve, poor fit] |
| CCOC(=O)c1c(NC(=O)CSc2nnc(-c3ccc(OC)cc3)o2)sc2c1CCC2 | inactive: 10.4% | – |
| N#Cc1nc(-c2ccco2)oc1N1CCc2ccccc2C1 | – | inconclusive: 20 µM [inhibitor, partial curve] |
| CCN1CCN(c2cc(C)c3cc(NC(=O)Cc4ccc(OC)c(OC)c4)ccc3n2)CC1 | – | inconclusive: 7.94 µM [inhibitor, partial curve] |
| COC(=O)[C@@H]1C[C@@]2(O)[C@@H](O)[C@@H](O)[C@@H](O)C[C@H]2N1CC1CCCCC1 | – | inconclusive: 39.8 µM [inhibitor, single point] |
| Cc1cc(C)nc(Nc2ccc(N3CCOCC3)cc2)n1 | – | inconclusive: 31.6 µM [inhibitor, single point] |
| O=C(O)c1ccccc1Nc1cccc(OCc2ccc3ccccc3n2)c1 | – | inconclusive: 31.6 µM [inhibitor, partial curve] |
| C/C(CCC(=O)OC[C@@H]1O[C@H](C#Cc2ccccc2)C=C[C@@H]1Oc1ccc(C)cc1)=N/OC[C@@H](C)[C@H](OCc1ccccc1)C(C)C | inactive: -19.3% [at 11.5 µM] | – |
| COc1ccc(CNC(=O)C2CCN(S(=O)(=O)c3cccc4cccnc34)CC2)cc1 | – | inconclusive: 0.1 µM [inhibitor, full curve, poor fit] |
| C#C[C@]1(O)CC[C@@H]2[C@H]3CCc4cc(OC)ccc4[C@@H]3CC[C@@]21C | inconclusive: -37% [inhibitor] [at 25.7 µM] | – |
| Cc1nc2cnc(Oc3ccccc3)nc2n(-c2ccccc2)c1=O | – | inconclusive: 6.31 µM [inhibitor, partial curve] |
| CCCc1cc(=O)[nH]c(Nc2ccc(OC)c(Cl)c2)n1 | – | inconclusive: 31.6 µM [inhibitor, partial curve] |
| COc1ccc(-c2nnc3n2N=C(c2ccccc2)CS3)cc1OC | inactive: 2.52% | – |
| Nc1nc(CN2CCc3ccccc3C2)nc(Nc2ccccc2)n1 | – | inconclusive: 0.199 µM [inhibitor, full curve, poor fit] |
| CCCNc1nc2c(c(=O)n(C)c(=O)n2C)n1CCC(C)C | – | inconclusive: 15.8 µM [inhibitor, single point] |
| CCCCCCN(C(=O)CCCCCN1C(=O)NC(c2ccc3ccccc3c2)C(C(=O)OCc2ccccc2)=C1C)C(C(=O)NCCCC)c1ccc(OCC(=O)OC)c(C(=O)OC)c1 (stereo not drawn) | inactive: 5.05% | – |
| Cc1ccc(NC(=O)CSc2nc3nc(C)cc(C)c3c(=O)[nH]2)cc1 | inactive: -7.02% | – |
| COc1ccc(-c2nnc(-c3ccc(Br)o3)o2)cc1OC | – | inconclusive: 31.6 µM [inhibitor, single point] |
| CCOC(=O)NC(=O)CSc1nc2ccc(OCC)cc2[nH]1 | – | inconclusive: 25.1 µM [inhibitor, partial curve, poor fit] |
| Cn1c(=O)c2c(nc(NCCCO)n2C/C=C/c2ccccc2)n(C)c1=O | – | inconclusive: 39.8 µM [inhibitor, single point] |
| CCc1nc2oc(C(=O)c3ccccc3)c(N)c2c2c1COC(C)(C)C2 | – | inconclusive: 20 µM [inhibitor, partial curve] |
| O=C(CCCn1c(=O)[nH]c2ccccc2c1=O)N1CCN(c2ccccn2)CC1 | inactive: -9.53% | – |
